The list shows a part of the results. Sequences were assembled here from the parent chain. Values near 0.05 are background.
B1: TEV protease; numbered along this chain (parent)
chain: MGESLFKGPRDYNPISSSICHLTNESDGHTTSLYGIGFGPFIITNKHLFRRNNGTLVVQSLHGVFKVKDTTTLQQHLVDGRDMIIIRMPKDFPPFPQKLKFREPQREERICLVTTNFQTKSMSSMVSDTSCTFPSGDGIFWKHWIQTKDGQCGSPLVSTRDGFIVGIHSASNFTNTNNYFTSVPKNFMELLTNQEAQQWVSGWRLNADSVLWGGHKVFMVKPEEPFQPVKEATQL

Variants of: B1
Test: raw area under fraction-flipped curve 0-4 h after induction (AUC4h, not background-subtracted), DNA-recorder readout of cleavage of the substrate (dimensionless); higher = more cleavage of the substrate by the protease variant
Settings: temperature: 34 °C; time window: 0-4 h after rhamnose induction
Method: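 In vivo DNA recorder in E. coli TOP10(DE3) ΔrhaA at 34 °C. Each TEVp single-site mutant (parent TEVp 0) is paired with a single-site variant of the 7-mer TEVs (canonical ENLYFQ|S). The substrate sits between flexible linkers in a Bxb1-sfGFP-TEVs-SsrA fusion, so cleavage stabilises Bxb1 and speeds flipping of a recombination array, read by NGS. The value is the raw area under the fraction-flipped curve over 0-4 h after rhamnose induction (AUC4h), with ≥20 reads per time point. It is not background-subtracted; inactive controls average about 0.047.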
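Also: Bxb1 expression induced with 0.2% (w/v) L-rhamnose at OD600 near 0.5, cultures sampled hourly, flipped fraction per protease–substrate barcode pair counted by paired-end Illumina sequencing.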

Row | Variant | area with substrate CNLYFQS | area with substrate SNLYFQS | area with substrate TNLYFQS | area with substrate YNLYFQS | area with substrate HNLYFQS | area with substrate INLYFQS | area with substrate LNLYFQS | area with substrate PNLYFQS | area with substrate GNLYFQS | area with substrate KNLYFQS
1 | N193D | 0.0696 | 0.0716 | 0.0634 | 0.0532 | – | – | – | – | – | –
2 | N193R | 0.0625 | – | 0.0609 | 0.0627 | 0.0716 | 0.059 | 0.0561 | 0.0717 | – | –
3 | T174V | 0.0712 | 0.0586 | – | 0.0475 | 0.0598 | – | – | – | 0.0776 | 0.0543
4 | T174H | 0.0845 | 0.0609 | 0.0662 | – | 0.0752 | – | – | 0.0633 | 0.0667 | –
5 | V157I | 0.0429 | 0.058 | 0.0711 | – | 0.0616 | 0.0988 | 0.0608 | 0.0615 | 0.0538 | 0.0637
6 | S171T | 0.0761 | – | – | 0.0447 | 0.0858 | 0.0692 | 0.0701 | – | – | 0.126
7 | L211S | 0.0757 | 0.0668 | – | 0.07 | – | 0.0801 | – | – | – | 0.061
8 | L211K | 0.0588 | – | – | – | 0.0597 | – | 0.0695 | – | – | –
9 | P134S | 0.0663 | – | – | – | 0.0668 | 0.0787 | 0.0541 | 0.0705 | – | 0.0647
10 | D149H | 0.0621 | – | 0.0403 | 0.0583 | – | 0.0564 | – | – | – | 0.0603
11 | F163T | 0.0658 | 0.0663 | 0.0411 | – | – | 0.0555 | 0.0755 | 0.0748 | – | 0.0569
12 | A196R | 0.0923 | – | – | – | 0.0522 | – | – | 0.0647 | – | –
13 | A170M | 0.0535 | – | 0.0638 | – | – | – | – | 0.059 | – | 0.0708
14 | K148D | 0.0584 | – | 0.0601 | 0.0585 | – | 0.0633 | 0.0497 | 0.0648 | 0.0689 | 0.0674
15 | K148S | 0.0662 | – | 0.0479 | – | – | – | 0.0676 | – | – | –
16 | V126L | 0.0644 | 0.0726 | 0.0657 | 0.0519 | 0.054 | – | – | 0.0842 | – | –
17 | N186Q | 0.0619 | – | – | – | – | 0.0714 | 0.0786 | 0.0608 | – | –
18 | N186K | 0.101 | – | 0.0645 | 0.0529 | 0.0577 | 0.0634 | 0.0738 | – | 0.0688 | –
19 | N186I | 0.0522 | – | 0.0462 | – | 0.0749 | – | – | 0.0718 | 0.0766 | 0.09
20 | N186S | 0.0821 | 0.0518 | 0.0596 | – | – | – | 0.0631 | 0.0643 | – | 0.0525
21 | N186C | 0.0757 | – | 0.0643 | 0.0581 | – | – | 0.0576 | – | – | –

Same assay, conditions: temperature: 34 °C; time window: 0-4 h after rhamnose induction

Row | Variant | area with substrate MNLYFQS | area with substrate NNLYFQS | area with substrate VNLYFQS | area with substrate WNLYFQS | area with substrate FNLYFQS | area with substrate QNLYFQS | area with substrate RNLYFQS
22 | T174V | 0.0625 | 0.0569 | 0.0649 | – | – | – | –
23 | T174H | 0.0714 | 0.0438 | – | 0.0549 | – | – | –
24 | V157I | – | 0.065 | 0.045 | 0.0649 | 0.0251 | – | –
25 | S171T | 0.041 | 0.0666 | – | – | 0.0824 | – | –
26 | L211S | 0.0578 | – | – | – | – | – | –
27 | L211K | 0.0625 | 0.0695 | – | – | – | – | –
28 | P134S | 0.0685 | – | – | 0.0581 | 0.0509 | – | –
29 | D149H | 0.0601 | – | 0.0563 | 0.0567 | – | – | –
30 | F163T | – | 0.0672 | – | 0.0699 | 0.0751 | 0.0734 | –
31 | A196R | – | 0.0727 | – | – | – | – | –
32 | K148D | – | 0.0525 | 0.05 | 0.0604 | – | – | 0.06
33 | K148S | – | – | – | 0.0664 | – | – | –
34 | V126L | 0.043 | – | – | 0.0622 | – | – | –
35 | N186Q | – | 0.0496 | 0.0406 | 0.0766 | 0.0683 | – | –
36 | N186K | – | 0.0696 | – | – | 0.0588 | 0.0777 | –
37 | N186S | 0.0767 | – | 0.0698 | 0.0685 | 0.0702 | – | –
38 | N186C | – | 0.0567 | – | 0.0608 | – | 0.0616 | –
